# From PubChem BioAssay AID488969 (Vanderbilt High Throughput Screening Facility, 2010)
# Over roughly 110,000 compounds, “z-score” has its median near -0.1; the highest 2% begin near 2. Some of the results follow. Calls of active or inactive are those of the source.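 The calls were made as follows: active = z-score in the third read window above 3 or below -3; inactive = the rest.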
# Biological target: Metabotropic glutamate receptor 8 (Rattus norvegicus) (UniProt P70579)
# Assay: rat mGluR8 modulators via GIRK flux, primary screen, cell-based, thallium flux, HTS (AID 488969)
# Conditions: HEK293 rat mGluR8, GIRK (G protein-gated inwardly rectifying potassium channel) thallium flux, FluoZin2; at 10 µM; stronger effect = higher value; submaximal glutamate (EC20) added with thallium
# UniProt P70579, sequence (P70579 whole entry, looked up): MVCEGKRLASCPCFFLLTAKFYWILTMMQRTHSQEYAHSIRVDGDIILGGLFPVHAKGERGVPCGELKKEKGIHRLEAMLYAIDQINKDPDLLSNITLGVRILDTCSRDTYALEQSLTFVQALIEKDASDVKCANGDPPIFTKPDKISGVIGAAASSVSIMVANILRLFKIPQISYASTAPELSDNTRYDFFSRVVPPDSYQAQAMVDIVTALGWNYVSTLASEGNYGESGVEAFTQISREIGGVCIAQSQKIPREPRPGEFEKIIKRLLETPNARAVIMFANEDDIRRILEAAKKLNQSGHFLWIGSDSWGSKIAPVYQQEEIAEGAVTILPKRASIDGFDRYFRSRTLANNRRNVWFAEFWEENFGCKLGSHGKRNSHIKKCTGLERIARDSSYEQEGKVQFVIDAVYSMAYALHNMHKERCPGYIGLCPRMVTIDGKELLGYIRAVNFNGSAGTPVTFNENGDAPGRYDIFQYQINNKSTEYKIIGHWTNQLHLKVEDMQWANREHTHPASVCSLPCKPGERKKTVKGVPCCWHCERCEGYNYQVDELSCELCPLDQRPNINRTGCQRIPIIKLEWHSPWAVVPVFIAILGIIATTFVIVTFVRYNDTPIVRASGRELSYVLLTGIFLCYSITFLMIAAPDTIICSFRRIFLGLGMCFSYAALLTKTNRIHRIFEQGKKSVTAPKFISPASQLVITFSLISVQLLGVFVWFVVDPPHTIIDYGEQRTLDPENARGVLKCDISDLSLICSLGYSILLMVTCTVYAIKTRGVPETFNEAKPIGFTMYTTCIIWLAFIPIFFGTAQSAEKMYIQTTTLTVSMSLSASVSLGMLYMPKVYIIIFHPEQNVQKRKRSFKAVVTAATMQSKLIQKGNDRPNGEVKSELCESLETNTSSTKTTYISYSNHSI
row,SMILES,z-score
1,Nn1c(SCc2cccc(C(F)(F)F)c2)nnc1-c1ccco1,1.92
2,O=C(NCc1ccco1)C12CN(Cc3ccccc3)CC1C(c1cccc([N+](=O)[O-])c1)=NO2 (stereo unspecified),-0.343
3,Cc1cc(C)c(S(=O)(=O)N2CCCCC2)cc1N(C)S(=O)(=O)c1ccc(Cl)cc1,-0.144
4,CC(=O)COc1ccc2c(-c3ccccc3)cc(=O)oc2c1,0.0164
5,O=C(Nc1nnc(SCc2ccccc2)s1)c1cc2c(s1)CCCC2,-0.0564
6,CCn1c2ccccc2c2cc(NC(=O)COC(=O)Cc3cn4ccsc4n3)ccc21,-0.0951
7,N#C/C(=C\c1cn(Cc2ccc(F)cc2)c2ccccc12)C(=O)NCc1ccco1,-0.41
8,COc1ccc(CCNC(=O)CSCc2ccc(Cl)cc2)cc1OC,0.454
9,O=C(Nc1ccc(Br)c(C(F)(F)F)c1)c1ccccc1,0.42
10,CCN(CC)C(=O)CSc1nnc(CNc2ccc(F)cc2)o1,-0.212
11,O=C(/C=C/c1ccc(O)c(O)c1)c1ccc(S(=O)(=O)N2CCCCCC2)cc1,-0.0669
12,Clc1ccc(/C=N/Nc2ncnc3ccccc23)cc1Cl,-0.176
13,CCOC(=O)c1c(NC(=O)CSc2nc3ccccc3o2)sc(C)c1C,-0.0559
14,Cc1ccc(Cl)cc1N1CCN(C(=O)C2(S(=O)(=O)c3ccc(Cl)cc3)CC2)CC1,0.0583
15,CSc1ccccc1Sc1cc(C(=O)O)c2ccccc2n1,-0.623
16,CC1=NN(C(=O)c2csc(C(C)C)c2)C(O)(C(F)(F)F)C1 (stereo unspecified),-0.36
17,CCCNCC1COc2ccccc2O1 (stereo unspecified),-0.0887
18,O=c1[nH]c(CN2CCN(S(=O)(=O)c3ccc(Cl)cc3)CC2)nc2cc(Cl)ccc12,-0.242
19,Cc1cccc(C)c1OC(=O)CN(c1ccc(Cl)cc1)S(C)(=O)=O,-2.06

row,SMILES,z-score
1,CCOC(=O)c1cnc(-n2nc(C)cc2C)nc1N1CC(C)OC(C)C1 (stereo unspecified),-0.0793
2,O=C(COc1ccc(S(=O)(=O)N2CCOCC2)cc1)NC1CCCC1,0.339
3,Cc1ccc2oc(-c3cccc(NC(=O)c4cc(-n5cnnc5)ccc4Cl)c3)nc2c1,-0.0315
4,CCCCn1c(SC(C)C(=O)c2ccc(OC)cc2)nc2cc(S(N)(=O)=O)ccc21 (stereo unspecified),-1.06
5,COc1ccc(NC2=NC(=S)N(c3ccccc3C)C23CCCCC3)cc1,active: 15.4
6,COc1ccc(NC(=O)CN(Cc2ccccc2)Cc2ccccc2)cc1S(N)(=O)=O,-0.193
7,c1ccc(-c2nc(NCCCN3CCOCC3)c3ccccc3n2)cc1,1.24
8,Cc1cc(C)n2cc(CSc3nc4cc(Cl)ccc4o3)nc2n1,-0.565
9,O=C(c1ccco1)N1CCN(C(=O)c2ccc(COc3ccc4c(c3)CCC4)o2)CC1,-0.21
10,CCOC(=O)CSc1[nH]c(=O)cc(C)c1C#N,-0.162
11,Cc1nn(-c2ccccc2)c(=S)n1-c1ccccc1,0.514
12,Cc1ccc(NC(=S)NC2CC3CCCC(C2)N3Cc2cccs2)cc1 (stereo unspecified),-0.103
13,O=C(NC(=S)Nc1ccccc1N1CCOCC1)c1ccc(-c2cc(Cl)ccc2Cl)o1,0.0698
14,COc1c(F)c(F)c(C(=O)Nc2ccc3oc(-c4ccncc4)nc3c2)c(F)c1F,-0.29
15,O=C(C(=O)N1CCc2ccccc2C1)c1cn(CC(=O)N2CCCCC2)c2ccccc12,-0.582
16,O=C(COC(=O)CC12CC3CC(CC(Br)(C3)C1)C2)NC(=O)NCc1ccco1,0.0373
17,CCOC(=O)c1ccc2nc(NC(NC(C)=O)(C(=O)OC)C(F)(F)F)sc2c1 (stereo unspecified),-1.45
18,O=c1c2cnn(-c3ccccc3)c2ncn1Cc1ccccc1,-0.353
19,Cc1ccccc1N1CN(Cc2ccco2)CNC1=S,-0.154

row,SMILES,z-score
1,COc1ccc2cc(C)c3nnc(SCC(=O)Nc4nc(-c5ccccc5)cs4)n3c2c1,-0.183
2,CCn1cc(NC(=O)Nc2ccc(OC)c(OC)c2)c(C(N)=O)n1,0.576
3,Cc1ccc(NC(=O)N2CCCC2C(=O)NCc2cccs2)cc1 (stereo unspecified),0.0555
4,Cc1ccc(CNC(=O)c2coc(=O)c3ccccc23)o1,-0.0847
5,N#Cc1cc(Oc2ccccc2)c(-n2nnc3ccccc32)cc1C#N,0.266
6,CCOc1ccccc1C(=O)n1nc(C)cc1C,0.292
7,COc1ccc(C(=O)N2CCC(C(=O)Nc3ccc4c(c3)OCCO4)CC2)cc1,-0.825
8,COc1ccccc1C(=O)Nc1ccc(N2CCN(S(C)(=O)=O)CC2)cc1,-0.118
9,CCOC(=O)C1CCCN(c2c(Nc3cc(C)cc(C)c3)c(=O)c2=O)C1 (stereo unspecified),0.531
10,O=C(O)C1C2CCC(C2)C1C(=O)Nc1nc2ccccc2s1 (stereo unspecified),0.745
11,COCc1cc(C(C)=O)ccc1OC,-0.203
12,COc1cccc(-c2nc(-c3ccccc3)no2)c1,0.14
13,Cn1cc(C(=O)NCC2COc3ccccc3O2)c(=O)c2cc(S(=O)(=O)N3CCCCC3)ccc21 (stereo unspecified),0.0561
14,Cc1cc(C)c(S(=O)(=O)N(C)CC(=O)NC2CCCC2)c(C)c1,-0.387
15,CC(C)NC(=O)CC(=O)N/N=C/c1ccccc1F,0.0011
16,C/C(CCc1oc2c(Br)cc(Br)cc2c1-c1ccc(C)o1)=N\O,0.0899
17,C/C(=N/NC(=O)CNC(=O)Cc1ccccc1)c1ccco1,0.0499
18,CCCc1cc(=O)[nH]c(SCC(=O)N(Cc2ccccc2)C(C)C)n1,-0.715
